# Values joined by “and” are separate entries in the source; they are usually repeats but may differ in a detail not shown here. Identical values can stand only once. At least one read-out could not be matched to a standard name with certainty.
# Test system: leukemia P388
# Assay: NCI studies against leukemia P388 (Appendix 1, MDA and T/C)
# Type: in vivo, murine
# From the text: On the other hand, murine transplantable leukemias are a good predictor of anti-leukemia activity in human beings (Kenis "Dose schedules and mode of administration of chemotherapeutic agents in man". Recent Results Cancer Res. 21, 54-61 (1969). Only those tests which use the survival times as an activity parameter are valid as predictors of antileukemia activity in human beings (for instance, leukemia p388 y L-1210), whilst "in vitro" tests (HeLa cells and other) are inappropriate (Llombart-Rodriguez, 1983). NCI data generated in the last years confirm the value of above assertions to compounds of general formula [drawing 1] as described in U.S. Pat. No. 4,204,063.
# Experimental results from NCI studies against leukemia P388 are shown in an appendix (Appendix 1). In order to simplify the presentation of results we have extracted from these the minor active dose (MDA) against leukemia P388--for each compound. MDA is defined as the minor dose of the drug that reaches the minimal activity criteria of the NCI. For leukemia P388 this criteria on the basis of survival time is a minimal increase in survival of treated animals over a control resulting in a T/C≥120. In the following table the MDA for 14 examples are presented. In cases where none of the tested doses reached the MDA, the MDA is indicated as "NONE". The column "cytotoxic activity" has been extracted from U.S. Pat. No. 4,204,063. Data are presented in order of the highest to lowest cytotoxic activity.
structure (smiles),measurement,setting,value
CCN(CC)CCN1C(=O)c2cccc3cc(N)cc(c23)C1=O [Example 10],T/C %,"dose 3,20 mg as printed",127%
same,T/C %,"dose 6,50 mg as printed",123%
same,T/C %,"dose 13,00 mg as printed",123%
Nc1cc2c3c(cccc3c1)C(=O)N(CCN1CCCC1)C2=O [Example 11],T/C %,"dose 6,50 mg/kg",112% and 137%
same,T/C %,"dose 12,10 mg/kg",135% and 163%
same,T/C %,"dose 24,20 mg/kg",180%
same,T/C %,"dose 48,39 mg/kg",86%
O=C1c2cccc3cc(O)cc(c23)C(=O)N1CCN1CCOCC1 [Example 24],T/C %,"dose 60,00 mg/kg",117%
same,T/C %,"dose 120,00 mg/kg",100%
same,T/C %,"dose 240,00 mg/kg",130%
COc1cc2c3c(cccc3c1)C(=O)N(CCN(C)C)C2=O [Example 26],T/C %,"dose 9,50",110%
same,T/C %,"dose 13,90",116%
same,T/C %,"dose 18,90",132% and 100% and 124%
same,T/C %,"dose 37,80",111% and 139% and 119% and 132%
same,T/C %,"dose 75,50",< 100% and 119% and 96%
same,T/C %,"dose 75,70",121%
same,T/C %,"dose 151,00",< 100%
CCOC(=O)Nc1cc2c3c(cccc3c1)C(=O)N(CCN(C)C)C2=O [Example 28],T/C %,"dose 60,00 mg/kg",125% and 147%
same,T/C %,"dose 120,00 mg/kg",150% and 192%
same,T/C %,"dose 240,00 mg/kg",175% and < 100%
CCOC(=O)Nc1cc2c3c(cccc3c1)C(=O)N(CCN1CCCC1)C2=O [Example 29],T/C %,"dose 60,00 mg/kg",133%
same,T/C %,"dose 120,00 mg/kg",147%
same,T/C %,"dose 240,00 mg/kg",161%
CC(=O)Nc1cc2c3c(cccc3c1)C(=O)N(CCN(C)C)C2=O [Example 30],T/C %,"dose 7,50 mg/kg",145%
same,T/C %,"dose 15,00 mg/kg",195% and 164%
CC(=O)Nc1cc2c3c(cccc3c1)C(=O)N(CCN1CCCC1)C2=O [Example 31],T/C %,"dose 60,00 mg/kg",202%

# From US5183821A, “Method for treating leukemias using N-(2-dimethylaminoethyl)-3-amino-1,8-naphthalimide for treating leukemias and solid tumors” (priority 1991, dated 1993)
